The record followed here is publication PMC12136788.

T1: UNK ZnF1-3 (human, UniProt Q9C0B0 31-174)
T1 sequence: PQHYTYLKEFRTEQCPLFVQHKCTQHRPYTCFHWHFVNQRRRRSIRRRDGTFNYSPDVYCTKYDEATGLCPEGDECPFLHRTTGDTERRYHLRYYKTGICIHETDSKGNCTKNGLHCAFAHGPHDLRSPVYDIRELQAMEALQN

B1: chr11:98549071:98549072:+_ENSMUSG00000017221_ENSMUST00000017365|mus_mus|motif|central (ssRNA)
RNA: GGGAGUUCUACAGUCCGACGAUCAUCCAGCUUGUCCAGGAACUCAUAGACCCGGGCGUGAUAAUAGUAACACUUGGCAGCGGCGAGGUCCAGGGCUCGGCGGUUCUGAGUGCUGAUCUUCUGCAUCAGGUCAUCAGAGAUUUUCAACAGAGGAUUGAGCAUCA
B2: chr3:10015032:10015033:+_ENSMUSG00000027533_ENSMUST00000029046|mus_mus|mus_mus_mus_hu_True|1_68 (ssRNA)
RNA: GGGAGUUCUACAGUCCGACGAUCGUUUUUACCAUCACAAGUGAUGAUACAAUCUGGCUUGGCCAUUGCAGCCAUCUUUCGCAAAGCUAUUCCCACUCCUAGCUCCUUCAUGUAUUCAUCAAAGCCUUUGCUGUCCAUCAGGCGCAACAGAGGAUUGAGCAUCA
B3: chr4:116226318:116226319:-_ENSMUSG00000055900_ENSMUST00000106478|mus_hu|FALSE|FALSE (ssRNA)
RNA: GGGAGUUCUACAGUCCGACGAUCAGGCCUUGGACAUGGGGAAAAGUUUUGCUGGAGAGACAUCUUGAGAGAAAGUAUAUCUGUUCUGCUGGUUCUUAGUCCCACUGGGAAAGAGUACUUCAGUAUCUUUGAAGAUGCUUGAGACAACAGAGGAUUGAGCAUCA
B4: 38467728_38467848_921_CDS_ENSMUSG00000060450_ENSMUST00000072376|mouse|control|control (ssRNA)
RNA: GGGAGUUCUACAGUCCGACGAUCCUUCGUCUGCCGAGCUUGAUUGAAGUCCAAGAUCUCCUGGAUCAGACUUGACAAUGACUCUACAUCCUGUACAGCUCUCUCAUCCACAGUUUCUUCUUGGUCUACAUCCGCCGCAGCAGCCAACAGAGGAUUGAGCAUCA
B5: chr7:7676484:7676485:-_ENSG00000106399_ENST00000223129|hu_hu|FALSE|FALSE (ssRNA)
RNA: GGGAGUUCUACAGUCCGACGAUCAUAUUGGAGUAGCAAUUCUUUAUAAAAGGACUUCGGUGAGAACUGUCAAUAUAUCAGUUCCAUCAAAAACUCUAGGUUGGAAUAUCUUAAAAACAGCAAAUUAAAUAUGAGAAAGCACAGCAACAGAGGAUUGAGCAUCA
B6: chr7:7679991:7679992:-_ENSG00000106399_ENST00000396682|hu_hu|hu_hu_hu_mus_False|28_48 (ssRNA)
RNA: GGGAGUUCUACAGUCCGACGAUCUGGGAUGAAUCUUUUCCAGCUUCCCCACGAAGCACACGGGCCGGUCGAUAUACUGUGGUAACAUGCCGGCGUUGACGCGCGCUCUGGGCAAGUGCAUUAUGUCCUCCAUGAUUCUGCCGCCAACAGAGGAUUGAGCAUCA
B7: chr18:35731848:35731849:+_ENSMUSG00000037236_ENSMUST00000166793|perfect_dup|motif|central (ssRNA)
RNA: GGGAGUUCUACAGUCCGACGAUCCAGUGCACUAUGAGCUCCUUGUUGAUUCAAUGAAGAACUCAUUCCAAGAUUCAUUAAACGGGCAAGGCGUGCAGUACCCUGGUUCAUCCUUCCAAGAGAUGCUGGCAUACUUAAAGACUGCAACAGAGGAUUGAGCAUCA
B8: chrX:102930994:102930995:-_ENSG00000123562_ENST00000441076|hu_hu|motif|central (ssRNA)
RNA: GGGAGUUCUACAGUCCGACGAUCAUAAGCCCUGUUAUACAUUAACGAUUUUAAAGAACAUCAAUUUUACAAGAAAAAGACGGAGAACAAAAAGUGUUUACAGAUACAGGACAAAAAUGGUGAGCUGUCUGUAGACGCUCACAGCAACAGAGGAUUGAGCAUCA
B9: chr2:202488911:202488912:-_ENSG00000155755_ENST00000286196|hu_mus|hu_hu_hu_mus_False|68_108 (ssRNA)
RNA: GGGAGUUCUACAGUCCGACGAUCAUUUAACAUUUUUUCAUAAUCUCCAGUAGCAUUUCAGCAUUAUUAAUCAAAAACUCAAUUGUAAAUACAUGUAUCUUAUAAAAAUACACUUAAAAACACGAGUGGGGAGCGCAGGCGCCACAACAGAGGAUUGAGCAUCA
B10: chr2:179515052:179515053:+_ENSMUSG00000000305_ENSMUST00000000314|mus_hu|mus_mus_mus_hu_False|1_88 (ssRNA)
RNA: GGGAGUUCUACAGUCCGACGAUCGCUGUCCCAUGCAGUCACCGUGAAGGCCACCUGCUCGGAGGGGACCUGCAGCUCCCGGGUGGCGAAGACUGUCCCAUCUGCCCCAACUUUGAAGUCCAUGCUGUUGGUCUCAUACUGCAUCAACAGAGGAUUGAGCAUCA
B11: chr11:119660697:119660698:+_ENSMUSG00000025583_ENSMUST00000147781|mus_mus|FALSE|FALSE (ssRNA)
RNA: GGGAGUUCUACAGUCCGACGAUCGCUUACUGGGGUGCAGUUAUAUGACCUCAUGAUUCUUUCUGCCAAUAAAAAAUUUCUAAACAAACUUGCCACGAGCAGGUCCUGUCGGAAAAGCUUUUGGAAGAGAUCCCGAGGGAGCACCAACAGAGGAUUGAGCAUCA
B12: chr12:70286429:70286430:+_ENSMUSG00000043998_ENSMUST00000060579|mus_mus|motif|central (ssRNA)
RNA: GGGAGUUCUACAGUCCGACGAUCACACUCCUGCUGCUUCAGUUUCCACAUCUUUUUGAAGACAUGGUAAAAGUCUGGGGCGGAGUAGUGGUCCUCUUCCAGGAAGAGUAUAAGGCCAGUGUAAUCUUGAAGAACUUUGACUCUCAACAGAGGAUUGAGCAUCA
B13: 66484257_66484377_196_5pUTR_ENSMUSG00000025326_ENSMUST00000107537|mouse|control|control (ssRNA)
RNA: GGGAGUUCUACAGUCCGACGAUCGAGAAGCAGAAGGAGGCGCCACCGUCAGCGACAGGUCGACGGAAGAGAAGCGUAACGAGGCGGUGAACAGCUGCGUGGCCCGGUGCGCGAGCGAGAGAGCGAGCGCAGGAGGGGCGACGACAACAGAGGAUUGAGCAUCA
B14: chr9:58044877:58044878:-_ENSMUSG00000051243_ENSMUST00000114144|mus_mus|FALSE|FALSE (ssRNA)
RNA: GGGAGUUCUACAGUCCGACGAUCCCCAGAAGGUGGGAAGGGGGUAUUAGCACCAGACCCAGAAAUGUCGCUGCUUUUUAAAACAACGAAAAUAAGAAAAUCAGUGCGCUGAGUUGAAAGGCCUACCAGGACCCCAGUUUGGCUCAACAGAGGAUUGAGCAUCA

Some of the results follow.

For this assay, the target named is T1, UNK ZnF1-3. Briefly: nsRBNS (natural sequence RNA bind-n-seq); RBNS binding buffer (assumed for nsRBNS): 25 mM Tris pH 7.5, 150 mM KCl, 3 mM MgCl2, 0.01% Triton X-100, 500 ug/ml BSA, 20 U/ml SUPERase-In, 4 C; UNK is unkempt and MSI1 is Musashi-1; names of the RNAs are library labels; protein concentration not given here; high values mean tight binding.
With B1, the binding signal is 0.842 enrichment R.
As to B2, the binding signal was found to be 0.81 enrichment R.
The result for B3 reads 1.47 enrichment R; that for B4, 0.923 enrichment R.
The result for B5 reads 2.74 enrichment R; that for B6, 0.506 enrichment R; that for B7, 0.828 enrichment R.
B8 yielded a binding signal of 0.946 enrichment R.
Molecule B9 gave a binding signal of 0.924 enrichment R.
The result for B10 reads 0.765 enrichment R; that for B11, 1.33 enrichment R; that for B12, 0.771 enrichment R.
The result for B13 reads 1.82 enrichment R; that for B14, 1.21 enrichment R.
